Laboratory results: the RNAGym collection of RNA variant scans (doi:10.1073/pnas.2313332121)
This sample is rich in variants without activity.

B1: TPR 5TU (parent)
chain: GGAUCUUCUCGAUCUAACAAAAAAGACAAAUCUGCCACAAAGCUUGAGAGCAUCUUCGGAUGCAGAGGCGGCAGCCUUCGGUGGCGCGAUAGCGCCAACGUUCUCAACUAUGACACGCAAAACGCGUGCUCCGUUGAAUGGAGUUUAUCAUG

Variants of: B1
Assay: polymerase ribozyme fitness, log enrichment relative to wild type (log ratio); higher = more active; in vitro selection for triplet polymerase activity
Procedure, shortened: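 The heterodimeric triplet polymerase ribozyme's subunits were each mutagenized into PCR-built libraries and transcribed. Every library was selected once, in triplicate, by annealing with a biotinylated primer, the partner subunit and triplets, incubating frozen at −7 °C, gel-excising extended constructs, capturing on streptavidin beads and running RT-PCR. Input and output libraries were Illumina-sequenced, with genotypes kept only at ≥10 input reads and ≥1 read per output. Fitness, from inverse-variance-weighted replicate averages, is the base-2 logarithm of genotype enrichment over wild-type enrichment.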

Polymerase ribozyme fitness (log ratio), ≤ -4.2:
U9G C79U G83C A97U
U9G C85G C87U A110G
U9G G11A A20G C43G G46A G58C G62C C116U U145G
U9G G11U C14G A41C G48A C85U G143C
U9G G42A U45C G50A C76G C87G A106C U111G
U9G G67A C95U U102A A142U
U9G U33G G42U G65C A73U C96U U151A
U9G U45C A52C A121G U145G
U9G U45G C63U U90C G92A U144A
U9G U82C G94A
C10A A16U G58A G59U C69U C85A C93A
C10A A19G A37U U55A G71A
C10A A21G G50A U55C G86A A119U U146A
C10A A22G A73U G84A C96U
C10A A23C C51A U56A C57G G74A C103G C118U
C10A A23U U33A G86A
C10A A24U A52G U55A C93U C116U
C10A A26G G59A C75U C116U C131A G143A A150C
C10A A28U U53A C69A G80A A89C G126C
C10A A29U C85U
C10A A37G C57U G74U C76G G88A U148A
C10A A40C U53A G68A G81A G92A
C10A A40U C54A U55C U78A G83C C118U C123U C125A U148G
C10A A91G
C10A C18G A22C G42A G67A C87U
C10A C27A C57U C87A
C10A C43U C72U C93G C95U
C10A C51A G74C C76G C93G C108G A110U
C10A C54U C57G G68C G86C C95G
C10A C54U G71U G94C U102A A142U A147C C149U
C10A C116A C118U U148A
C10A G25A G59C C87U A106G G141C C149G A150U
C10A G46U C85A C99G G126C
C10A G83A A113C C116U
C10A G83C C125U U146G
C10A G88A U101A U102A
C10A U45G C85U
C10A U55A C63U A150C
C10A U55A G88C A110C A137U G141C
C10A U77A C96G A147C
C10G A12G G59U C93G A122U U134G
C10G A16C A39C G74A G88U C129A U134C
C10G A16U C18G C51G G70A G86A C105A
C10G A17C G48C A60C G88C
C10G A17U A19U C43U C54U U148C
C10G A17U C54A G83U
C10G A19C C27G G84C A91G
C10G A19G C38U G58C C63U G70C
C10G A19G G83U G94A C95A A97C A121C G143U U146G
C10G A19U A40U G59A A73G G84U A89U C108A A115U A142C U145C
C10G A20C G42C C51U C85A A91C C108U C118U U146A
C10G A20U C54U A91G G100C U145G A150G
C10G A21C A26U A29U U31A C35U C95U
C10G A22U A41U G42A C54A A60G C93A
C10G A23U U31G C32U A41C U55A C93G
C10G A24C C27U A29U A52G G94U A110U G133C
C10G A24C U45G C96A C103A G124C
C10G A29U C51A U55A U90C A106C A121G
C10G A30C A52G G65A G70U C95U U145G
C10G A37C C87U
C10G A39G A41C G94C G117C
C10G A40G U45A G84A U102G
C10G A40U A64C C72A C87A U101G G124A
C10G A52C C63U A110G
C10G A60G G88U A91C C93U
C10G C14U A17U U31A C103A
C10G C18G A24U U77A C93U G136A
C10G C27G C35G A49C G70C C79A C95G
C10G C32G G42A G58C C79U
C10G C38U C85U U90A U135C
C10G C57A A73G U78A C85U U144C
C10G C63U G92U A113C C114A
C10G C76U G84A C85A C129U U134C
C10G C85A A89U C99G
C10G C85U C87A U101A C118U C131A U151G
C10G G11A A37C C93G C123A G141C
C10G G11A G46A C57A U78G C79G G92A C123U
C10G G11U A37C U55G C95G U139G
C10G G25A C27U G46U U82A
C10G G50C U90A A98G C99A U111G A119U A122U
C10G G59A G65C U146G A150C U151A
C10G G68U C85A
C10G G70U U82A C93U A110G U135A
C10G G80C U90G A106C A115G C132A
C10G G83C C85G G92U U134A
C10G G94A C116G A121U G124U G152A
C10G U13G A47C C93U A106U A107G
C10G U13G C85A C93U A110G G128U C132U
C10G U15G U53A G62A C93U
C10G U44A G59U U109C G143C
C10G U45G C57U G70C C76A A91G C93A
C10G U55A C85G
C10G U55A G68A G84U
C10G U55G C87A A110G C129G
C10G U56A U77C A106G A120U G140U G143A
C10G U61A G71A C96U
C10U A12C A26C G50A A64U
C10U A12G A22G A30U G50A G65A U82A G84U C87A C114G
C10U A12U A17U U44G G67U C72A G88C U101G C116U A122U
C10U A12U U77C G133C U151A
C10U A17G A28U C54A C87G A137C
C10U A17G G42U U44A G58C G83U U111C
C10U A17U A24C C54A U55G
C10U A20C C108U
C10U A21U G48U G50U C95U G126A U135C A138C
C10U A22G A30G U44A A64C C75U C95U C96A G133U A138C A142C
C10U A22U A40C G59A G86A A89U
C10U A22U A60G A73G C75A G86A A120U U135G G141C
C10U A23C U61C A115G
C10U A23G A30U C93U A98U C99A C116U
C10U A24U C27U C54U C87U A115U
C10U A26C A41U G86C A89G G112A U135C
C10U A29C C35G A37U A66G A98G A120C A138C
C10U A30U C35U U55G U61A
C10U A37U C118U A138C
C10U A40U U45A A60C U78G C85A A91G U148A
C10U A41C G81C G117C A142C
C10U A41C U44G C87U A89G
C10U A47C A66U C76U C85A C99A
C10U A64G
C10U C14G A17G U55A G88C U101G A120C G136A
C10U C14U C35G U44A A52U C75U C85U C95U U104C A138G G140U
C10U C18U U55G C63U G80C G81U U130A G133C
C10U C27A C32G C87U C96U C105A G133U
C10U C27A U53G A66C C87A
C10U C27U U53A G59A C108G G133C G136U
C10U C32A C75U C131U
C10U C35G G65C G81U C93U C96U C103U
C10U C35U A41C C54U G81U G94A A113U A147G
C10U C35U G92A C105U A138C U144C
C10U C54A C93U U104G U145G G152C
C10U C75A C118U
C10U C76U C85A A113C C114A
C10U C79U C93A A98G C103U
C10U G25C A26U C57G U77A G88A G124C U144C
C10U G25U U101G A107U U144G
C10U G58U A66C U77G A91U C96G A97U
C10U G59A U77G G92U C99A G124A
C10U G59A U90G C95G
C10U G68A A91G C108A
C10U G71A G88A C93U A113U C116U G117U U148A G152U
C10U G81A C93G
C10U G84A G88U A113G G128A C131G G136C
C10U G92U C99U A137C
C10U U13C U33A A49G G65A G84U G92A A115C C149A
C10U U13G C72U C85U A91G C95A A97U
C10U U13G U15C A19C C43G C75G U78G C99A A115C C116U
C10U U15A C36A G68A U90G A142U
C10U U15A C36U U61A G92A G141C
C10U U44A G58A G88A U148C
C10U U53A C63G C69A U144A
C10U U55A G68A C76A A89C C93U C95A C108A A115U G117A U130G
G11A A12C A20U C87U C114A C149U
G11A A12G C32U G50C U55G C72U G92A C118U U146C
G11A A16U A19U U77G C85U G117A C125G
G11A A19C A64U
G11A A20C A39C G59C C95U
G11A A21C G88A C105U
G11A A21U A40U A47C G59A C85A U134A U139A A147C
G11A A22U A29U A41G U55A U56A G84C
G11A A28U G50C C51A G74U C85U G126A
G11A A30C C95G A119U C132U
G11A A30G A41U U77G G94U
G11A A39U A47G G81C G86C
G11A C18G A21G C87U A98G
G11A C32A C35U G133C G141U
G11A C32U A52C G58C C75U C76G C79G C87A G133A G136U
